Source: PubChem BioAssay AID686971 (National Center for Advancing Translational Sciences (NCATS), 2013)
The campaign covered roughly 360,000 compounds. About 7,500 (2.1%) were called active. The inconclusive results got no clear call from the source; some entries with a clear call stand among them for comparison. Calls follow the shape of the dose curve; as a rule, active = well fitted cell-killing curve with a large enough effect; inconclusive = small, poorly fitted or top-dose-only effect, or effect the other way, or another doubt; inactive = no such curve, though single readings can be large or run the other way. Potencies of inconclusive entries are left out as doubtful fits.
Potency is read from the fitted curve at half-maximal effect; tags tell the direction and shape of the fitted curve.

Experiment: qHTS for induction of synthetic lethality in tumor cells producing 2HG: qHTS for the HT-1080-IDH1KD cell line;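 as to activity, negative = toxicity: 0% = DMSO wells and -100% = cell-free medium wells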
Conditions: HT-1080 IDH1 knockdown viability, ATP luminescence, 48 h; activity, negative = toxicity: at 46.1 µM (top of the series) unless noted
Summary of the method: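 CellTiter-Glo luminescence after 48 h compound exposure at 37 degrees C of IDH1-knockdown HT-1080 cells in 5% FBS RPMI. %Activity scaled between DMSO wells and cell-free media wells, with curves fitted and assigned curve classes.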
In the case of `O=C1NC[C@H](Cc2ccccc2)N(C[C@H]2CCCN2C[C@H](Cc2ccc(O)cc2)N2C[C@H](Cc3ccc(O)cc3)N(CC3CCCCCC3)C(=O)C2=O)C1=O`, the Potency is reported as inconclusive [cytotoxic, single point].
In the case of `Cc1cccc(C)c1N1C(=O)c2ccccc2NC(=O)C1C(=O)NCCOc1ccccc1` (configuration not stated), the “activity, negative = toxicity” value is reported as inactive: 24.3%.
With `O=C(Nc1ccccc1F)c1ccc(CNS(=O)(=O)c2cccc(C(F)(F)F)c2)cc1` the Potency was inconclusive [cytotoxic, single point].
With `O=C(NC1CCCC1)C(c1ccc(F)cc1)N(Cc1ccccc1Cl)C(=O)CCl` (configuration not stated) the Potency was inconclusive [cytotoxic, single point].
With `O=C(NCc1ccccn1)c1ccc2nc(C3CCCCC3)oc2c1` the “activity, negative = toxicity” value was inactive: -1.21%.
With `CCCCn1c(N)c(N(CCOC)C(=O)CCS(=O)(=O)c2ccc(Cl)cc2)c(=O)[nH]c1=O` the “activity, negative = toxicity” value was inactive: 1.36%.
With `CC1CC(C)CN(C(=O)/C=C/c2ccc([N+](=O)[O-])s2)C1` (configuration not stated) the Potency was inconclusive [cytotoxic, single point].
With `CCCN1CNc2c(c(=O)[nH]c(=S)n2CCc2ccc(C)c(C)c2)C1` the Potency was inconclusive [cytotoxic, single point].
In the case of `CC1CCCC/C1=N/Nc1ccc([N+](=O)[O-])cc1[N+](=O)[O-]` (configuration not stated), the Potency is reported as inconclusive [cytotoxic, partial curve].
In the case of `CCN(CC)c1ccc2cc(C(N)=O)/c(=N\NC(=O)c3ccncc3)oc2c1`, the Potency is reported as inconclusive [cytotoxic, partial curve, poor fit].
In the case of `N#CCNC(=O)c1nn2c(C(F)(F)F)cc(-c3ccccc3)nc2c1Br`, the “activity, negative = toxicity” value is reported as inactive: 12%.
In the case of `c1ccc2c(Nc3ccc(N4CCOCC4)cc3)nc(N3CCOCC3)nc2c1`, the Potency is reported as inconclusive [cytotoxic, full curve].
In the case of `COc1cccc(NC(=O)c2ccc(NCCCN3CCC(C)CC3)c([N+](=O)[O-])c2)c1`, the Potency is reported as inconclusive [cytotoxic, single point].
In the case of `COc1ccc(C(=O)Nc2ccc(S(=O)(=O)N3CCc4ccccc43)cc2)cc1`, the Potency is reported as inconclusive [cytotoxic, partial curve].
In the case of `CCOc1ccc2oc(C(=O)OCC(=O)N3CC(C)OC(C)C3)c(C)c2c1` (configuration not stated), the “activity, negative = toxicity” value is reported as inactive: 2.35%.
With `O=[N+]([O-])c1cc([N+](=O)[O-])c(N2CCCCCC2)cc1NCCO` the Potency was inconclusive [cytotoxic, single point].
In the case of `C=C(C)CNC(=S)NNC(=O)CCn1c2ccc(Cl)cc2c2cc(Cl)ccc21`, the Potency is reported as inconclusive [cytotoxic, single point].
For `NC1=NC(=Nc2ccc(Cl)cc2)c2ccccc21`, the activity, negative = toxicity was inconclusive: -31.1% [cytotoxic].
With `O=C(Cc1ccccc1)Nc1nc(-c2cccs2)cs1` the Potency was inconclusive [cytotoxic, single point].
With `CC(C)n1c(O)c(N=NC(=O)C2COc3ccccc3O2)c2ccccc21` (configuration not stated) the Potency was inconclusive [cytotoxic, single point].
For `COc1ccc2c(C)nc(Nc3nc(-c4ccccc4)cc(=O)[nH]3)nc2c1`, the Potency was inconclusive [cytotoxic, full curve].
For `COc1ccc(NC(=O)CN2c3cccc4cccc(c34)S2(=O)=O)c(OC)c1`, the Potency was inconclusive [cytotoxic, partial curve].
For `CCOC(=O)c1c(-c2ccc(C)cc2)csc1NC(=O)C1CCCO1` (configuration not stated), the “activity, negative = toxicity” value was inactive: 3.2%.
In the case of `O=C(CN1C(=O)c2ccccc2C1=O)N1CCOCC1`, the “activity, negative = toxicity” value is reported as inactive: 11.3%.
With `Cc1cc(C(c2ccc(O)cc2)c2cc(C)c(O)cc2C)c(C)cc1O` the Potency was inconclusive [cytotoxic, single point].
For `Cc1ccc(C(=O)Nc2ccccc2SCC2CSc3nc4ccccc4c(=O)n32)cc1` (configuration not stated), the Potency was inconclusive [cytotoxic, single point].
In the case of `CCOC(=O)c1cc(-c2ccccc2)sc1NC(=O)C(C)N1C(=O)c2ccccc2C1=O` (configuration not stated), the “activity, negative = toxicity” value is reported as inactive: 22.2%.
With `COc1cc(C(C[N+](=O)[O-])c2c(C)cc3ccccn23)ccc1O` (configuration not stated) the Potency was active: 9.2 µM.
In the case of `O=C(NN=Cc1ccccc1O)C(O)c1ccccc1` (configuration not stated), the Potency is reported as inconclusive [cytotoxic, partial curve].
In the case of `CSCC[C@H](NC(=O)OC(C)(C)C)c1nnc(SCc2cccc(F)c2)o1`, the “activity, negative = toxicity” value is reported as inactive: -1.81%.
In the case of `CC1CCN(c2ccccc2NC(=O)c2ccc(Br)o2)CC1`, the Potency is reported as inconclusive [cytotoxic, single point].
With `C=CCn1c(CNc2ccccc2)nnc1SCC(=O)N/N=C/c1ccccc1O` the Potency was inconclusive [cytotoxic, single point].
In the case of `CC(C)(C)NS(=O)(=O)c1cc(C(=O)Nc2sccc2C#N)ccc1Cl`, the Potency is reported as inconclusive [cytotoxic, single point].
With `CC(C)(C)CC(=O)Nc1cc2c3c(c1)CCC(=O)N3CCC2` the “activity, negative = toxicity” value was inactive: -1.12%.
For `C=C1C(=O)OC2C1C(OC(=O)C(C)=CC)CC(=C)C1C(O)C3OC3(C)C21O` (configuration not stated), the Potency was active: 14.6 µM.
In the case of `O=C(/C=C/c1ccc2c(c1)OCO2)c1ccccn1`, the Potency is reported as inconclusive [cytotoxic, single point].
In the case of `CCCOc1ccc2ccccc2c1/C=N/n1c(C)nnc1-n1nc(C)cc1C`, the Potency is reported as active: 4.11 µM.
With `O=C(Nc1nccs1)c1cc2sccc2n1Cc1ccc(F)cc1` the Potency was inconclusive [cytotoxic, single point].
In the case of `CCOc1cccc2sc(NC(=O)CC)nc12`, the Potency is reported as inconclusive [rising, partial curve].
In the case of `CC[n+]1ccc2cc(OC)c(OC)cc2c1Cc1ccc(OC)c(OC)c1`, the “activity, negative = toxicity” value is reported as inactive: -14.1%.
With `CCC(=O)NC(c1cccs1)c1cc(Cl)c2cccnc2c1O` (configuration not stated) the Potency was inconclusive [cytotoxic, full curve].
In the case of `Cn1c(=O)c(C(=O)NCCO)c(O)c2ccccc21`, the Potency is reported as inconclusive [cytotoxic, single point].
For `BrC(/C=C\c1ccccc1)=N/Nc1nc(N2CCOCC2)nc(N2CCOCC2)n1`, the Potency was inconclusive [cytotoxic, single point].
With `COc1ccc(CCNC(=O)c2cc(-c3ccc(Cl)c(Cl)c3)oc2C)cc1` the Potency was inconclusive [cytotoxic, single point].
With `CC(C)(C)c1ccc(C(O)c2ncc(-c3ccccc3)[nH]2)cc1` (configuration not stated) the Potency was inconclusive [cytotoxic, single point].
For `Cc1ccc(C)c(S(=O)(=O)N2CCCC2CNC(=O)C(=O)NCCc2ccco2)c1` (configuration not stated), the Potency was inconclusive [cytotoxic, single point].
In the case of `CCN(CC)c1ncn(Cc2c(Cl)cccc2Cl)c2ncnc1-2`, the Potency is reported as inconclusive [cytotoxic, partial curve].
For `CC(=O)Nc1ccc(NC(=O)c2cc(-c3cc(C)c(C)cc3O)n[nH]2)cc1`, the Potency was inconclusive [cytotoxic, single point].
In the case of `CCSc1nnc(NC(=O)NC(C)(C(F)(F)F)C(F)(F)F)s1`, the Potency is reported as inconclusive [cytotoxic, single point].
With `CC1(C(=O)Nc2cccc3cccnc23)CCN1Cc1ccccc1OC(F)F` (configuration not stated) the Potency was inconclusive [cytotoxic, single point].
In the case of `C=CCNc1nc(-c2ccccc2)c(C(=O)OCC)cc1C#N`, the Potency is reported as inconclusive [cytotoxic, single point].
In the case of `CNC(=O)c1sc(-c2cccs2)nc1C`, the Potency is reported as inconclusive [rising, partial curve].
For `CCCCNC(=O)c1nc(-c2cnccn2)oc1-c1ccc(Cl)cc1`, the Potency was inconclusive [rising, partial curve, poor fit].
In the case of `NCC/C=C1/c2ccccc2CSc2ccccc21`, the Potency is reported as inconclusive [cytotoxic, single point].
In the case of `CCN(CC)c1ccc(/C=N/Nc2nc(C)cc(=O)[nH]2)c(O)c1`, the Potency is reported as inconclusive [cytotoxic, full curve].
In the case of `CCNC(=O)C1(C)CCCN(C(=O)c2ccc3c(c2)C(C)(C)CCC3(C)C)C1` (configuration not stated), the Potency is reported as inconclusive [cytotoxic, single point].
With `Cc1ccc(C2CC2c2n[nH]c(=S)n2-c2cccc(C)c2)cc1` (configuration not stated) the Potency was inconclusive [cytotoxic, single point].
With `CCOc1ccc(N2CC(C(=O)Nc3cc(OCC)c(N4CCOCC4)cc3OCC)CC2=O)cc1` (configuration not stated) the “activity, negative = toxicity” value was inactive: 5.49%.
In the case of `CSc1nc(C)cc(C)c1S(=O)(=O)c1ccccc1C`, the “activity, negative = toxicity” value is reported as inactive: -14.8%.
With `CCN(CC)CCCNC(=O)c1cc(-c2cccc(Cl)c2)on1` the Potency was inconclusive [cytotoxic, single point].
For `COc1ccc(C)cc1Nc1nc(-c2c[nH]c3ccccc23)cs1`, the Potency was inconclusive [cytotoxic, single point].
For `CCOC(=O)CC1CCCCN1C(=O)c1cc(COc2cccc3cnccc23)on1` (configuration not stated), the Potency was active: 4.11 µM.
In the case of `Cc1c2cnn(CC(=O)NCCCN3CC(C)CC(C)C3)c(=O)c2c(C)n1Cc1ccccc1Cl` (configuration not stated), the Potency is reported as inconclusive [cytotoxic, single point].
With `COC(=O)c1ccc2nc(C3CCCCC3)c(Cc3cccc(Cl)c3)n2c1` the Potency was inconclusive [cytotoxic, single point].
For `COc1ccc(-c2cc(=O)oc3cc(O)ccc23)cc1`, the Potency was inconclusive [cytotoxic, single point].
With `CCOC(=O)C1(CCOc2ccccc2)CCN(Cc2ccc(OC)cc2)CC1` the Potency was inconclusive [cytotoxic, single point].
In the case of `COCCN(CC(=O)Nc1cccc(C)c1C)C(=O)Cc1sc(C)nc1-c1ccc(F)cc1`, the “activity, negative = toxicity” value is reported as inactive: -0.919%.
